In all, about 280,000 compounds went through this assay and about 100 (0.036%) were called active. Inconclusive means that the source gave no clear call. Such entries were picked first, then a sample of the others. Calls follow the shape of the dose curve; as a rule, active = well fitted inhibition curve with a large enough effect in the signal ratio, with a control signal flat (not every such curve was filed as active); inconclusive = small, poorly fitted or top-dose-only effect, or effect the other way, or a change in a side signal; inactive = no such curve, though single readings can be large or run the other way; the % refers to the signal ratio. Where the call is inconclusive, the potency comes from a doubtful curve fit. A note “side channel” means that the fit belongs to a control or component signal, not to the main read-out.
The compounds below were run against Muscleblind-like protein 1 (Homo sapiens) (UniProt Q9NR56) (assay: qHTS Assay for Inhibitors of MBNL1-poly(CUG) RNA binding). Details: TR-FRET MBNL1-His/biotin-(CUG)12 binding, 665/545 ratio; series mostly up to 57.5 µM.
UniProt Q9NR56, sequence (Q9NR56 whole entry, looked up): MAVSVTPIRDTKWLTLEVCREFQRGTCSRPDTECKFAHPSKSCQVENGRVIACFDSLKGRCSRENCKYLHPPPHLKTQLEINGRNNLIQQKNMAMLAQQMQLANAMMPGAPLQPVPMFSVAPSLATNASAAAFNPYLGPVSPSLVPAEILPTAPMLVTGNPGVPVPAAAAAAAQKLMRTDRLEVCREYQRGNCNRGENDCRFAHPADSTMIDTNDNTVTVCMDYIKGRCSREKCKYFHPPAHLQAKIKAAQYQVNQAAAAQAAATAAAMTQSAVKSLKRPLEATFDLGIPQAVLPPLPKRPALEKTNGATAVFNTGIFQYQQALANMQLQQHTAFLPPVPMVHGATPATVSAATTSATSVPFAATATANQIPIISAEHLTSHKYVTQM
Procedure, shortened: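 Ratiometric TR-FRET (665 over 545 nm, excitation 340 nm) tracks disruption of MBNL1-His/biotin-(CUG)12 complex after 60 min at room temperature, with compounds at 92 nM to 58 uM final.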
`CCCC[C@@H](CNC)NC[C@H](NCCCCC1CCCCC1)C(C)C` was tested, and the Potency was “inactive”. In the case of `CNC(=O)c1cc(C)c(-c2ccccc2)s1`, the Potency was inconclusive: 39.8 µM [quencher, side channel, single point]. `O=C(O)c1ccc2c(c1)C(=O)N(c1ccc([N+](=O)[O-])cn1)C2=O` was tested, and the Potency was inconclusive: 15.8 µM [quencher, side channel, partial curve]. With `COc1ccccc1OCCCN1C(=O)C(=O)c2cccc(C)c21` the Potency was inconclusive: 35.5 µM [quencher, side channel, single point]. With `O=C(O)c1cccc(N2C(=O)c3ccc(C(=O)c4cccc([N+](=O)[O-])c4)cc3C2=O)c1` the Potency was inconclusive: 1.78 µM [quencher, side channel, full curve]. For `CCC(C(=O)NC1CCCCCC1)n1nc(C)c2c(C)n(-c3ccccc3)nc2c1=O` (centres undefined), the Potency was “inactive”. In the case of `Cc1ccc2nc(SCc3cccc([N+](=O)[O-])c3)nc(C)c2c1`, the Potency was inconclusive: 0.891 µM [quencher, side channel, full curve]. With `CCOc1ccc(/C=C2\SC(=S)N(CCC(=O)O)C2=O)cc1` the Potency was inconclusive: 5.62 µM [quencher, side channel, partial curve]. With `Nc1nc(SCC(=O)Nc2ccc([N+](=O)[O-])cc2Br)n[nH]1` the Potency was inconclusive: 2.51 µM [quencher, side channel, partial curve]. With `COc1ccc(C(=O)Nc2cc([N+](=O)[O-])ccc2N2CCCC2)cc1` the Potency was inconclusive: 28.2 µM [quencher, partial curve]. In the case of `CC(/C=C1\N=C(SCc2ccccc2Cl)SC1=O)=C\c1ccccc1`, the Potency was “inactive”. In the case of `O=C(COC(=O)COc1ccc2ccccc2c1)NC1CCCc2ccccc21` (centres undefined), the Potency was inconclusive: 39.8 µM [quencher, side channel, single point]. In the case of `CN(C)c1nc(N)c2ncc(=S)[nH]c2n1`, the Potency was inconclusive: 31.6 µM [quencher, side channel, partial curve]. `Cc1ccc(Sc2nc3c(c(=O)[nH]c(=O)n3C)n2CCc2ccccc2)cc1` was tested, and the Potency was inconclusive: 0.708 µM [quencher, side channel, full curve, poor fit]. In the case of `Cc1ccc(NC(=O)COC(=O)c2cc(Cl)ccc2Cl)c(Br)c1`, the Potency was inconclusive: 39.8 µM [fluorescent, side channel, single point]. In the case of `O=C(NCCc1ccccc1)C1CCCN(S(=O)(=O)c2cccc3nsnc23)C1` (centres undefined), the Potency was inconclusive: 12.6 µM [quencher, side channel, partial curve]. For `COc1ccc(NC(=O)CSC2=C(C#N)C(c3ccco3)C3=C(CCCC3=O)N2)c(OC)c1` (centres undefined), the Potency was inconclusive: 25.1 µM [quencher, side channel, partial curve]. For `N#Cc1c(N)oc(-c2ccc3c(c2)OCO3)c1-c1ccc2c(c1)OCO2`, the Potency was inconclusive: 25.1 µM [quencher, side channel, single point]. With `O=C(/C=C/c1ccc(OC(F)F)cc1)Nc1cccc(S(=O)(=O)NC2=NCCCCC2)c1` the Potency was inconclusive: 12.6 µM [quencher, side channel, partial curve]. `O=C(COC(=O)/C=C/c1ccco1)NCc1ccccc1Cl` was tested, and the Potency was inconclusive: 11.2 µM [quencher, side channel, partial curve]. For `CCN(CC)c1ccc(C(NC(C)=O)NC(C)=O)cc1`, the Potency was inconclusive: 22.4 µM [quencher, side channel, single point]. `CCc1nnc(SCC(=O)Nc2ccc3c(c2)OCO3)n1CC` was tested, and the Potency was “inactive”. With `CC(C)c1ccc(NC(=S)NN2CCOCC2)cc1` the Potency was inconclusive: 1.12 µM [fluorescent, side channel, single point]. With `CC1(c2ccccc2)CC(C)(C)N2C(=O)C3(C(C#N)=C(N)Oc4cc(O)ccc43)c3cccc1c32` (centres undefined) the Potency was “inactive”. `COc1ccc(NC(=O)c2ccc(C(=O)c3cc(OC)ccc3OC)cc2)cc1` was tested, and the Potency was “inactive”. `CC(C)c1ccc(/C=N/Nc2ccc(C(=O)O)cc2)cc1` was tested, and the Potency was inconclusive: 39.8 µM [quencher, side channel, single point]. `O=C(O)c1cccc([N+](=O)[O-])c1C(=O)Nc1nc2ccccc2s1` was tested, and the Potency was inconclusive: 15.8 µM [quencher, side channel, partial curve]. In the case of `O=C1c2ccc(Oc3ccc4c(c3)C(=O)N(CCCCO)C4=O)cc2C(=O)N1CCCCO`, the Potency was inconclusive: 11.2 µM [quencher, partial curve]. For `O=c1c2cc(-c3ccccc3)sc2ncn1/N=C/c1ccco1`, the Potency was inconclusive: 14.1 µM [quencher, side channel, partial curve]. `CN(C(=S)Nc1ccc(F)cc1)C(c1ccccc1)c1ccccc1` was tested, and the Potency was “inactive”. In the case of `Cc1ccc(Nc2nnc(SC/C(O)=C(\C#N)c3nc4ccccc4[nH]3)s2)c(C)c1`, the Potency was inconclusive: 0.112 µM [fluorescent, side channel, partial curve, poor fit]. With `CC(/C=N/NC(=O)c1cccnc1)=C\c1ccco1` the Potency was inconclusive: 35.5 µM [quencher, side channel, partial curve]. In the case of `Oc1ccc(Br)cc1-c1cc(-c2ccccc2F)[nH]n1`, the Potency was “inactive”. In the case of `CC(C)(C)NC(=O)COC(=O)c1cc(Cl)ccc1[N+](=O)[O-]`, the Potency was inconclusive: 10 µM [quencher, side channel, partial curve]. `CCCCC12CN3CC(C)(CN(C1)C3c1ccc([N+](=O)[O-])o1)C2=O` (centres undefined) was tested, and the Potency was inconclusive: 15.8 µM [quencher, side channel, partial curve]. With `COc1ccc(-n2nnnc2SCC(=O)N2CCCc3ccccc32)cc1OC` the Potency was inconclusive: 50.1 µM [inhibitor, single point]. `COc1ccc([N+](=O)[O-])cc1NC(=O)CSc1nc(C)cc(C)n1` was tested, and the Potency was inconclusive: 7.94 µM [quencher, side channel, partial curve]. `Cc1c(Br)c([N+](=O)[O-])nn1C(C)C(=O)NCC1CCCO1` (centres undefined) was tested, and the Potency was inconclusive: 31.6 µM [quencher, side channel, single point]. For `N=c1c(C(=O)NCC2CCCO2)cc2c(=O)n3ccccc3nc2n1Cc1ccccc1Cl` (centres undefined), the Potency was inconclusive: 4.47 µM [quencher, side channel, full curve, poor fit]. For `COc1ccc2oc(=N)c(C(=O)Nc3ccccc3)cc2c1`, the Potency was inconclusive: 17.8 µM [quencher, side channel, partial curve]. With `COc1ccc(CC(=O)Nc2nc(-c3ccccc3)c(C(C)=O)s2)cc1OC` the Potency was inconclusive: 14.1 µM [quencher, side channel, partial curve]. In the case of `CSc1sc(C(=O)NC(=O)NCc2ccncc2)c(C)c1-c1ccon1`, the Potency was inconclusive: 20 µM [quencher, side channel, single point]. With `CCOC(=O)CSC1=Nc2ccccc2C2=NC(CC(=O)NCc3ccc(OC)cc3)C(=O)N12` (centres undefined) the Potency was “inactive”. For `COc1ccc(CC2(CO)CCN(Cc3cccc4nccnc34)CC2)cc1`, the Potency was inconclusive: 12.6 µM [inhibitor, single point]. With `COc1ccc(NC(=O)CSc2nncc3ccccc23)cc1` the Potency was “inactive”. For `Cc1ccc(C(C(=O)NCC2CCCO2)N(C(=O)c2snc(C(N)=O)c2N)c2ccccc2)o1` (centres undefined), the Potency was inconclusive: 28.2 µM [quencher, side channel, single point]. With `COc1ccc2cc(C(=O)Nc3ccccc3)sc(=O)c2c1OC` the Potency was inconclusive: 3.55 µM [quencher, side channel, single point]. In the case of `CC(C)(C)C(=O)N1CCN(c2ccc(NC(=O)c3ccc([N+](=O)[O-])o3)cc2)CC1`, the Potency was inconclusive: 3.16 µM [quencher, side channel, full curve]. In the case of `COc1ccc(-n2c(SCC#N)nc3c(sc(=S)n3-c3ccccc3)c2=O)c(OC)c1`, the Potency was “inactive”. In the case of `N/C(Cc1ccc(Cl)cc1Cl)=N\OC(=O)c1cccs1`, the Potency was “inactive”. In the case of `Nc1cccc(-c2cc3ccccc3oc2=O)c1`, the Potency was inconclusive: 10 µM [quencher, side channel, partial curve]. For `CC(C)Cc1nc(N2CCN(C(=O)Cc3ccccc3)CC2)c(C#N)c2c1COC(C)(C)C2`, the Potency was inconclusive: 39.8 µM [fluorescent, side channel, single point]. With `Cc1cccc(NS(=O)(=O)c2cc(OCC(N)=O)c(C)cc2Cl)c1` the Potency was inconclusive: 79.4 µM [inhibitor, partial curve]. `Cc1ccc(N2C(=O)c3cccc4c(C(=O)O)ccc(c34)C2=O)cc1` was tested, and the Potency was inconclusive: 39.8 µM [quencher, single point]. With `O=C(C[n+]1cccc2ccccc21)c1ccc([N+](=O)[O-])cc1` the Potency was inconclusive: 15.8 µM [quencher, partial curve]. For `CC(NC(=O)c1cc([N+](=O)[O-])cc([N+](=O)[O-])c1)c1ccc(-n2ccnc2)cc1` (centres undefined), the Potency was inconclusive: 10 µM [quencher, side channel, partial curve]. With `N#Cc1cnn2c(C(F)(F)F)cc(-c3ccccc3)nc12` the Potency was inconclusive: 15.8 µM [quencher, side channel, partial curve]. With `COc1cc(OC)c(-c2c3cc(O)c(=O)cc-3oc3cc(O)c(O)cc23)cc1OC` the Potency was inconclusive: 14.1 µM [quencher, side channel, partial curve]. In the case of `COc1cc(/C=N/Nc2ccc(C(=O)O)cc2)ccc1O`, the Potency was inconclusive: 22.4 µM [quencher, side channel, partial curve].

— PubChem BioAssay AID2675 (National Center for Advancing Translational Sciences (NCATS), 2010)
Potency is read from the fitted curve at half-maximal effect; tags tell the direction and shape of the fitted curve or compound fluorescence and quenching.
